Assay results as given in PubChem BioAssay AID504332 (National Center for Advancing Translational Sciences (NCATS), 2011).
Out of some 350,000 compounds screened, about 31,000 (8.9%) were called active. This list was built around the results that the source calls inconclusive (neither active nor inactive); the mix of calls is not that of the screen. The call rests on the fitted dose curve; in most records, active means well fitted inhibition curve with a large enough effect; inconclusive means small, poorly fitted or top-dose-only effect; inactive means no such curve, though single readings can be large or run the other way. Potencies beside an inconclusive call are fits to weak or partial responses and may not hold up. More than one record can exist for a structure, and the calls need not agree.

target: Histone-lysine N-methyltransferase EHMT2 (Homo sapiens) (UniProt Q96KQ7); test: qHTS Assay for Inhibitors of Histone Lysine Methyltransferase G9a; conditions: G9a H3K9 monomethylation, AlphaScreen, 2 h; activity, negative = inhibition: at 59 µM (top of the series) unless noted; further: nearly all actives have a fitted effect of over 75% in size
Sequence of UniProt Q96KQ7 (Q96KQ7 whole entry, looked up): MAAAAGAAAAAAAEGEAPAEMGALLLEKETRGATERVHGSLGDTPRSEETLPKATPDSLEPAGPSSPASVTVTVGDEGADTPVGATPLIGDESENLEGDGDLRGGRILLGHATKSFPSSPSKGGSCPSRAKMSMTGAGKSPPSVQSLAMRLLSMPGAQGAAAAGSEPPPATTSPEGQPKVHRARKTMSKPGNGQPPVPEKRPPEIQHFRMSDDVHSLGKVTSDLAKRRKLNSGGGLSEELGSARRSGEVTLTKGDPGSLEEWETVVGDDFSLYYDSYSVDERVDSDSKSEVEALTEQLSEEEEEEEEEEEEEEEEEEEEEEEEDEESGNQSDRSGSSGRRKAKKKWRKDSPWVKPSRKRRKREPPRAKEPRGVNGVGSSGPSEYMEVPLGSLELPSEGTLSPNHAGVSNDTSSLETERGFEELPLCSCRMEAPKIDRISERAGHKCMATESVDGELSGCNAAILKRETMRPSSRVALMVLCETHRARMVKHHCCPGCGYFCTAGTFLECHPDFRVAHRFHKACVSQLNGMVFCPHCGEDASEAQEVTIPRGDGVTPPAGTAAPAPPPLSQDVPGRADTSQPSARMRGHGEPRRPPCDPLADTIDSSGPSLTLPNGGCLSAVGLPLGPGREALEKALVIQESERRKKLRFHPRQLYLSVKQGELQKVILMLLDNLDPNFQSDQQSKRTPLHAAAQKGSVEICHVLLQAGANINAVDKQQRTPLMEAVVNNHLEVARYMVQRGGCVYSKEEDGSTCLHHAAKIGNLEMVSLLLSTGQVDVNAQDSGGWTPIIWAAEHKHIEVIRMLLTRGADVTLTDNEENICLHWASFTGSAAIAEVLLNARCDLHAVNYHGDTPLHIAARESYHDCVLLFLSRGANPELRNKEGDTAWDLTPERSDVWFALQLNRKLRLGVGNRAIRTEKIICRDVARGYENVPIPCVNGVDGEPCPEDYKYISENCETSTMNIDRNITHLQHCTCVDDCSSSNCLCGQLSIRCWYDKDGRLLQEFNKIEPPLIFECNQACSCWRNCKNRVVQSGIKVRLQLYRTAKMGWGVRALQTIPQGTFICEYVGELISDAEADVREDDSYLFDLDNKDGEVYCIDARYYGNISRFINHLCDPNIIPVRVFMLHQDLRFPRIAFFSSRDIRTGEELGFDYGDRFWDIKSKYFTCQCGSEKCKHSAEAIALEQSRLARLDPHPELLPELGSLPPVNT
In short: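 Chemiluminescent proximity detection of H3K9 monomethylation, read after 10 min bead incubation in the dark. Reaction: 20 nM G9a, 500 nM biotin-H3K9 peptide, 20 uM SAM cofactor, 2 h, room temperature, following 15 min enzyme-compound preincubation.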
On the % scale 0 is the no-effect control and ±100 the full control effect; potency means the concentration at half of the fitted maximal effect; tags describe the fitted curve by direction and shape.

Structure (SMILES) | Potency | activity, negative = inhibition
CCC1CCCCN1C(=O)c1cccc(S(=O)(=O)Nc2cc(C(F)(F)F)ccc2Cl)c1 (stereo not drawn) | inconclusive: 89.1 µM [inhibitor, single point] | –
Cc1cc2nc(C3CCN(CC4COc5ccccc5O4)CC3)[nH]c2cc1C (stereo not drawn) | inconclusive: 22.4 µM [inhibitor, single point] | –
CC(C)CCN1CCN(Cc2ccc(C#CCCO)cc2)CC1CCO (stereo not drawn) | – | inactive: -29.7% [at 102 µM]
Nn1c(SCC(=O)Nc2ccccc2F)nnc1-c1cccnc1 | inconclusive: 31.6 µM [inhibitor, partial curve, poor fit] | –
Cc1c(/C=N/NC(N)=O)c2ccccn2c1C(=O)c1ccncc1 | active: 44.7 µM | –
COc1ccc(CC(=O)Nc2nnc3n2CCS3)cc1 | inconclusive: 3.55 µM [inhibitor, partial curve, poor fit] | –
C=CC[n+]1c(-c2ccc(Cl)cc2Cl)csc1Nc1c(C)n(C)n(-c2ccccc2)c1=O | – | inconclusive: -95.9% [inhibitor]
Cc1ccc(-c2nc(CSCC(=O)N3CCN(c4ccccn4)CC3)c(C)o2)cc1 | inconclusive: 89.1 µM [inhibitor, single point] | –
Cc1cc(C)c2nc(-c3ccccn3)cc(C(=O)NCc3ccco3)c2c1 | – | inactive: -9.98%
O=S(=O)(Nc1cc(C(F)(F)F)ccc1N1CCOCC1)c1ccccc1 | – | inactive: 2.6% [at 102 µM]
C=CCNC(=S)Nc1sc2c(c1C#N)CCCC2 | active: 44.7 µM | –
COn1c(SCC(=O)N(C)C)nc2ccccc2c1=O | inconclusive: 89.1 µM [inhibitor, single point] | –
COc1cc2c(C)nc3onc(-c4ccccc4)c3c2cc1OC | – | inactive: -0.209% [at 12.7 µM]
Cc1cccc(NC(=S)N/N=C/c2ccc([N+](=O)[O-])s2)c1 | inconclusive: 3.55 µM [inhibitor, partial curve, poor fit] | –
COc1cccc(NC(=O)c2sc3nc(C)c(C(=O)Nc4ccc(C)cc4C)c(-c4cccs4)c3c2N)c1 | inconclusive: 3.16 µM [inhibitor, full curve] | –
CCn1c(SCC(=O)Nc2ccc(NC(=O)c3ccco3)c(OC)c2)nc2ccccc2c1=O | inconclusive: 89.1 µM [inhibitor, single point] | –
CC1CCN(CCCNC(=O)c2ccc(Cn3c(=S)[nH]c4ccc(Br)cc4c3=O)cc2)CC1 | active: 17.8 µM | –
COc1cccc(-c2nc(NC(C)(C)C)c3ccccc3n2)c1O | inconclusive: 44.7 µM [inhibitor, partial curve] | –
O=C(CN1CCN(S(=O)(=O)c2ccc(Cl)cc2)CC1)NCC1(N2CCOCC2)CCCCC1 | – | inactive: -10.1% [at 12.7 µM]
COc1cccc(CN(CC2CCCO2)C(=O)c2cc3ccccc3oc2=O)c1 (stereo not drawn) | – | inactive: 5.65% [at 102 µM]
Cc1ccc(-c2nc(-c3cc4cccc(OCc5cccc(F)c5)c4oc3=O)no2)cc1 | – | inactive: 4.93%
COc1cccc(/C=C/C(=O)OCC(=O)Nc2ccc(Cl)c(S(=O)(=O)N(C)C)c2)c1OC | – | inactive: -3.44% [at 102 µM]
CCCCN(CCCC)C1=C(C(=O)c2ccccc2)N(CC)S(=O)(=O)c2ccccc21 | inconclusive: 20 µM [inhibitor, partial curve, poor fit] | –
COc1cc(C(=O)NCC2CCCO2)cc(Br)c1OCc1ccccc1 (stereo not drawn) | – | inactive: 31% [at 12.7 µM]
COc1cc(-c2nc(S(=O)(=O)c3ccc(Cl)cc3)c(N3CCOCC3)o2)cc(OC)c1OC | – | inactive: -44.5% [at 12.7 µM]

Structure (SMILES) | Potency | activity, negative = inhibition
CCN1C(=S)N[C@@H](c2cccc(C(F)(F)F)c2)C(C(=O)OC)=C1C | inconclusive: 6.31 µM [inhibitor, single point] | –
CCCCn1c(SCC(=O)N(CC)C2CCS(=O)(=O)C2)nnc1C(CC)N(C)C (stereo not drawn) | inconclusive: 50.1 µM [inhibitor, partial curve] | –
O=C(COC(=O)c1ccccn1)Nc1cccnc1Cl | active: 28.2 µM | –
CC(C(=O)Nc1ccc(O)cc1C(=O)O)N1C(=O)/C(=C\c2cccs2)SC1=S (stereo not drawn) | active: 7.94 µM | –
C/C(=N\NC(=S)Nc1cccc(C)c1)c1cc2ccccc2o1 | active: 35.5 µM | –
CCN(CC(=O)Nc1c(F)cccc1F)C(=O)/C=C/c1ccc2ccccc2n1 | active: 7.08 µM | –
CCc1ccc(OCC(=O)NNC(=O)C2CCN(c3ncnc4sc(C)c(C)c34)CC2)cc1 | inconclusive: 56.2 µM [inhibitor, partial curve, poor fit] | –
O=C(Cn1nc(-c2ccccc2)c2c(c1=O)CCCC2)Nc1ccc(F)c(Cl)c1 | – | inactive: 11.3%
Cc1cc(C)cc(N(CCC#N)C(=O)COC(=O)CN2C(=O)NC(C)(C)C2=O)c1 | inconclusive: 56.2 µM [inhibitor, partial curve] | –
COc1cccc(-c2nc(SCC(=O)Nc3nc(-c4ccccc4)c(C)s3)[nH]c(=O)c2C#N)c1 | inconclusive: 44.7 µM [inhibitor, partial curve] | –
CC1(C)CC(=O)/C(=C(/O)Cc2ccccc2)C(=NCCc2ccccc2)C1 | – | inactive: 16% [at 102 µM]
CCOC(=O)CCNCC1COc2ccccc2O1 (stereo not drawn) | – | inactive: -17%
CC(=O)N1CCN(c2ccc(NC(=O)c3ccc4c(c3)OCCO4)cc2)CC1 | inconclusive: 89.1 µM [inhibitor, single point] | –
O=C(COc1ccccc1[N+](=O)[O-])N/N=C/c1ccc[nH]1 | – | inactive: -11.5% [at 102 µM]
CCn1c(=O)c2cc(C(=O)NC3CCC(C)CC3)sc2c2ccccc21 (stereo not drawn) | – | inactive: -0.8%
Cc1ccc(NC(=O)c2oc3ccc(S(=O)(=O)N4CCCCCC4)cc3c2C)c(C)c1 | – | inactive: 1.65%
COc1cccc(OCCCCCCN2CCOCC2)c1 | inconclusive: 89.1 µM [inhibitor, single point] | –
CCC1(C)Cc2c(sc3nc(SC)[nH]c(=O)c23)CO1 (stereo not drawn) | active: 44.7 µM | –
COc1ccccc1CNCCCCCCNCCCCCCCCNCCCCCCNCc1ccccc1OC | active: 10 µM | –
CC(C)(C)OC(=O)N1CCC(c2c(C(=O)NCC3CCN(C4CCCC4)C3)cnn2-c2ccccc2Cl)CC1 (stereo not drawn) | active: 70.8 µM | –
COc1cccc(COC(=O)c2sc3nc4n(c(=O)c3c2C)CCC4)c1OC | – | inactive: 1% [at 102 µM]
CCOC(=O)NC1Cc2ccccc2C1Sc1ccccn1 (stereo not drawn) | – | inactive: 8.74% [at 102 µM]
COc1ccc(C(=O)CCN2CCCC(C)C2)cc1 (stereo not drawn) | active: 25.1 µM | –
CCN1CCN(CCCNC(=O)CCC(=O)N2CC(C)Oc3ccc(C)cc32)CC1 (stereo not drawn) | – | inactive: 22.8%
COCCNc1nc(-c2ccc(OC)cc2)c(-c2ccc(OC)cc2)s1 | inconclusive: 56.2 µM [inhibitor, partial curve, poor fit] | –

Structure (SMILES) | Potency | activity, negative = inhibition
Oc1c(Cl)cc(Cl)cc1/C=N/c1nccs1 | active: 8.91 µM | –
O=C(O)c1ccc(N/N=C/c2ccc(-c3cccc(Cl)c3)o2)cc1 | inconclusive: 89.1 µM [inhibitor, single point] | –
Cc1ccc(/C=N/NC(=O)CSc2nc3ccccc3o2)cc1 | – | inactive: 11.8%
Cc1ccc(NC(=O)c2c(NC(=O)c3ccc(F)cc3)sc3c2CCCC3)cc1C | inconclusive: 10 µM [inhibitor, partial curve, poor fit] | –
O=C(Nc1cccc(S(=O)(=O)N2CCOCC2)c1)c1cn(-c2ccccc2)nc1-c1ccccc1 | inconclusive: 31.6 µM [inhibitor, single point] | –
COc1ccc(OC)c(NC(=O)Cn2c(=O)n(-c3cccc(C)c3)c(=O)c3c2c2cc(C)ccc2n3C)c1 | – | inactive: 3.99%
Cc1ccc(/C=N/Nc2ccc(F)cc2F)s1 | inconclusive: 79.4 µM [inhibitor, single point] | –
CCNc1ncc2ncc(=O)n(C[C@H]3CCCO3)c2n1 | – | inactive: 4.31% [at 12.7 µM]
COc1ccc(C(CNc2ccc(S(=O)(=O)N3CCN(C)CC3)cc2[N+](=O)[O-])N(C)C)cc1 (stereo not drawn) | – | inactive: -43.4% [at 102 µM]
CCOc1ccc(-n2c(SCC(=O)Nc3cc(C)on3)nc3c([nH]c4ccccc43)c2=O)cc1 | – | inactive: 0.589%
CCN1C(=O)C(=O)N(CC(=O)N2CCN(c3ccccc3)CC2)C1=O | inconclusive: 89.1 µM [inhibitor, partial curve, poor fit] | –
[O-]/[N+](=C\c1ccncc1)c1ccc(Br)cc1 | active: 39.8 µM | –
CC1Cc2cc(/C(O)=C3/C(=O)C(=O)N(CCCn4ccnc4)C3c3ccco3)ccc2O1 (stereo not drawn) | inconclusive: 25.1 µM [inhibitor, single point] | –
NC(=S)c1ccc[n+]([C@@H]2O[C@@H](COP(=O)([O-])OP(=O)(O)OC[C@H]3O[C@@H](n4cnc5c(N)ncnc54)[C@H](OP(=O)(O)O)[C@H]3O)C(O)C2O)c1 (stereo partly drawn) | active: 17.8 µM | –
COCCCN1C(=O)C(=O)/C(=C(/O)c2ccc(OC(C)C)c(C)c2)C1c1ccncc1 (stereo not drawn) | active: 39.8 µM | –
O=C(NCCN1CCN(c2ccccc2)CC1)C1(S(=O)(=O)c2ccc(Cl)cc2)CC1 | inconclusive: 35.5 µM [inhibitor, partial curve, poor fit] | –
CCOC(=O)c1c(C)oc2nc(C)nc(N3CCN(c4cc(Cl)ccc4C)CC3)c12 | inconclusive: 28.2 µM [inhibitor, partial curve, poor fit] | –
Cc1ccc(C(=O)N=c2sccn2C)cc1S(=O)(=O)N1CCOCC1 | active: 39.8 µM | –
COc1cccc(CNC(=O)c2cccc(NC(=O)CC3SC(N4CCCCC4)=NC3=O)c2)c1 (stereo not drawn) | – | inconclusive: -75.6% [inhibitor] [at 2.33 µM]
COc1ccccc1C(=O)NC(=O)COC(=O)CCS(=O)(=O)c1ccc(C)cc1 | – | inactive: 3.79% [at 102 µM]
COc1cc(C)c(NC(=O)COc2ccc3c(c2)OCO3)cc1C | – | inactive: 1.1% [at 102 µM]
O=C(CN1CCN(c2ccccn2)CC1)Nc1cccc(F)c1 | – | inactive: 3.54% [at 102 µM]
O=C(NN=C1CCCC1)c1ccccc1OCCOc1ccccc1 | – | inactive: 12.3% [at 12.7 µM]
